# PubChem BioAssay AID1508624 (National Center for Advancing Translational Sciences (NCATS), 2021)
# Among all 48,000 compounds or so, about 120 (0.25%) were called active. Not shown: some 4% with an inconclusive outcome. Calls come from the whole dose curve; as a rule, active = well fitted activation curve with a large enough effect; inconclusive = small, poorly fitted or top-dose-only effect, or another doubt; inactive = no such curve, though single readings can be large or run the other way. The entries are a selection whose mix differs from that of the whole data set. Where no call is shown, the source filed none.
# Assay: Primary qHTS for Identification of Small Molecule Activators of Huntingtin-Antisense Promoter Activity; note: nearly all actives have a fitted effect of over 55% in size
# Conditions: HEK293 HTT-AS promoter firefly luciferase reporter, 24 h; activity change, positive = activation: at 57.5 µM (top of the series), percent change from vehicle, -100% = no light
# In short: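 Firefly luciferase signal from promoter-reporter HEK293 cells was scaled between vehicle (0%) and zero RLU (-100%). Compounds were tested at final concentrations of up to 57.5 uM over 24 h at 37 degrees C. PTC124 at 50 uM final served as control inhibitor.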
# Potency is the fitted concentration of half-maximal effect.
Compound,"activity change, positive = activation",Potency
COc1ccc(CNC(=O)c2cc(-c3cccc(Cl)c3)on2)cc1,9.66%,
COc1ccc(C2Nc3ccccc3-n3c(-c4ccccc4)c4c(=O)n(C)c(=O)n(C)c4c32)cc1 (stereo not drawn),-13%,
Cc1ccc(-n2nc3c(N4CCC(C(=O)NCCc5ccccc5)CC4)nnc(C)c3c2C)cc1,inactive: -45.6%,
Cc1coc2cc3oc(=O)c(CCC(=O)N4CCCCC4)c(C)c3cc12,37.2%,
COC(=O)CN1C(=O)CSc2ccc(S(=O)(=O)Nc3ccccc3)cc21,-1.78%,
Cc1c2cnn(-c3ccccc3)c(=O)c2c(C)n1C(C)C(=O)NCc1cccc(Br)c1 (stereo not drawn),inactive: -39.8%,
O=C1CCSc2ccc(S(=O)(=O)Nc3cccc(C(F)(F)F)c3)cc2N1,inactive: -34.4%,
CC(NC(=O)CSc1nc(-c2ccccc2F)nc2cc(=O)[nH]n12)c1nc2ccccc2n1C (stereo not drawn),-0.672%,
Cc1ccc(C)c(NS(=O)(=O)c2ccc3oc(=O)c4ncn(C)c4c3c2)c1,-1.34%,
Cc1cc(C)cc(NC(=O)c2cccc(C(=O)Nc3cc(C)cc(C)c3)c2)c1,-10.6%,
Cc1cccc(Nc2nc3c(S(=O)(=O)c4ccc(Br)cc4)nnn3c3ccsc23)c1C,inactive: -17.5%,
Cc1cc(C)cc(NC(=O)Cn2c(=O)n(CC(=O)NCCc3ccccc3)c(=O)c3ccccc32)c1,inactive: -41.6%,
CCOCCCNC(=O)Cn1nc(CC)n2c(cc3c(OC)cccc32)c1=O,2.15%,
Cc1cccc(OCCn2c(-c3ccc(Cl)cc3)nc3ccccc3c2=O)c1C,5.67%,
COc1ccc(-c2nc3ccccc3s2)cc1NC(C)=O,,active: 1410 nM
CCc1ccc(NC(=O)CC2C(=O)N(c3ccc(Cl)cc3)C(=O)N2C2CCCC2)cc1 (stereo not drawn),inactive: -20.6%,
COc1ccc(CCN2C(=O)CN(C3CCCCCC3)C(=O)C2c2ccc(C)cc2)cc1OC (stereo not drawn),-8.15%,
CCCc1cc(=O)[nH]c(Nc2ccc(O)cc2C)n1,-7.19%,
Cc1cccc(C(CC(=O)NCC2(c3ccccc3)CCCC2)c2ccccc2)c1O (stereo not drawn),-43.5%,
COC(=O)c1ccc(NC(=O)CC2C(=O)N(c3cccc(OC)c3)C(=O)N2Cc2cccc(OC)c2)cc1 (stereo not drawn),-5.07%,
O=S(=O)(Nc1nc2n(n1)C(c1ccccc1)C=C(c1ccc(Cl)cc1)N2)c1ccccc1 (stereo not drawn),inactive: -6.67%,
CCOc1ccc(-c2nc3c(c(CC)nn3-c3ccccc3)c3cc(OC)c(OC)cc23)cc1,2.3%,
CCCCOc1ccc(S(=O)(=O)Nc2cccc(-c3ccc(N4CCOCC4)nn3)c2)cc1,12.8%,
CC(=O)Nc1cc(-c2ccccc2)nn1Cc1cccc(Cl)c1,inactive: -19.6%,
COc1cccc(-c2nc3c(c(C)nn3-c3ccccc3)c3cc(OC)c(OC)cc23)c1,-3.49%,

Compound,"activity change, positive = activation",Potency
CC1Cc2cc(S(=O)(=O)CCC(=O)Nc3ccc(Cl)cc3F)ccc2N1C(=O)C1CC1 (stereo not drawn),-27.7%,
COc1ccc(CCNC(=O)CCc2c(C)c3cc4c(C)coc4cc3oc2=O)cc1,-17.3%,
COc1cc2oc(=O)c(CC(=O)NCc3ccc(OC)c(OC)c3)c(C)c2cc1Cl,6.39%,
COc1ccc2c(c1)cc1c(=O)n(CC(=O)NCc3ccco3)nc(C)n12,-9.17%,
COc1ccc(NC(=O)c2c(C)oc3ccc(O)c(CN4CCCC4)c23)cc1Cl,-3.41%,
COc1ccc(NC(c2ccc(F)cc2)c2nnc(-c3ccccc3Cl)o2)cc1Cl (stereo not drawn),-14.4%,
COc1ccc(S(=O)(=O)Nc2cccc(-c3ccc(N4CCCCCC4)nn3)c2)cc1F,34.9%,
CC(C)(C)c1ccc(C(=O)Nc2ccc(OCc3cc(=O)n4ccsc4n3)cc2)cc1,inactive: -6.29%,
COc1cc(CSc2ncc(CO)n2Cc2ccc(C)cc2)cc(OC)c1,7.54%,
Cc1cccc(N2C(=O)C(CC(=O)Nc3ccc(F)cc3)N(C3CCCC3)C2=O)c1 (stereo not drawn),-10.9%,
Cc1oc2ccc(O)c(CN3CCN(C)CC3)c2c1C(=O)Nc1ccc(C(C)C)cc1,1.96%,
CCCOc1ccc(C2C(=O)N(C3CCCCCC3)CC(=O)N2Cc2ccc(OC)cc2)cc1OC (stereo not drawn),-32.9%,
Cc1cc(C)c2oc(-c3cc(NC(=O)Cc4ccccc4)ccc3Cl)nc2c1,-6.31%,
CCc1ccccc1OCCSc1nc(-c2cccs2)nc2cc(=O)[nH]n12,-12.5%,
O=C(Nc1ccccc1C(F)(F)F)c1cc2ccccn2n1,78.4%,
CCCS(=O)(=O)N1CCC(n2c(C(F)(F)F)nc3cccnc32)CC1,-14.4%,
CCc1ccc(-n2c(CCC(=O)O)ccc2-c2ccc(F)cc2)cc1,0.388%,
Cc1ccc(-n2nnc(-c3nsc(NC(=O)c4ccc(C)c(C)c4)n3)c2C)cc1,inactive: -17.9%,
COc1cccc(NC(=O)c2c(C(=O)Nc3ccccc3)sc3nc(C)cc(=O)n23)c1,-12.1%,
Cc1nn(C(C)C(=O)NC2CCC(C)CC2)c(=O)c2cc3sccc3n12 (stereo not drawn),inactive: -2.97%,
Cc1nn(-c2ccc(N3CCCC3)nn2)c(C)c1CCC(=O)NCc1ccc(OC(C)C)cc1,-13%,
CC(=O)c1cc2c(cc1NC(=O)c1cnn(-c3ccc(C)cc3)c1-n1cccc1)OCO2,-6.75%,
O=C(Nc1cccc(C(F)(F)F)c1)c1noc2c1CCc1ccccc1-2,14.9%,
CNC(=O)c1ccc(Nc2nnc(-c3ccc(C)c(S(=O)(=O)NC(C)(C)C)c3)c3ccccc23)cc1,-12.3%,
COc1ccccc1NC(=O)CCN1CCC(C(N)=O)CC1,-8.83%,

Compound,"activity change, positive = activation",Potency
O=C(Nc1cccc(-c2nc3ncccc3o2)c1)c1ccc(-c2cccc(Cl)c2Cl)o1,-13.9%,
CC(C)NC(=O)Cn1ncn2c(cc3cc(F)ccc32)c1=O,41.2%,
COc1ccc(CCNC(=O)Cc2c(C)c3cc(OC)c(OC)cc3oc2=O)cc1,-4.27%,
Cc1cc(C)c(C#N)c(SCC(=O)Nc2ccccc2C#N)n1,inactive: 2.24%,
COc1cc(C(=O)Nc2ccc(OCc3cc(=O)n4ccc(C)cc4n3)cc2)cc(OC)c1OC,inactive: -0.483%,
CCn1c(=O)cc(OCC(=O)NCc2ccc(F)cc2Cl)c2ccccc21,"inactive: 6.98% [at 11.5 µM, percent change from vehicle, -100% = no light]",
Cc1cccc(CS(=O)(=O)CC2Nc3ccc(C(=O)NCc4ccccc4Cl)cc3NC2=O)c1 (stereo not drawn),-27.6%,
CCNC(=O)c1cnc2sc(N3CCC(C)CC3)nn2c1=O,4.83%,
COc1ccc(OC)c(CCNC(=O)c2ccc3[nH]c(C)c(C)c3c2)c1,inactive: -22.9%,
COc1ccccc1CCNC(=O)CCc1c(C)c2cc3c(C)coc3cc2oc1=O,-0.857%,
CC1Cc2cc(S(=O)(=O)CCC(=O)Nc3ccc(F)cc3Cl)ccc2N1C(=O)C1CC1 (stereo not drawn),-13.8%,
CCCCC(=O)OCC(=O)[C@H]1[C@H](C)C[C@H]2[C@@H]3C[C@H](F)C4=CC(=O)C=C[C@]4(C)[C@@]3(F)[C@@H](O)C[C@@]21C,inactive: -10%,
COc1ccc(C)cc1NC(=O)C1CCN(S(=O)(=O)Cc2ccccc2)CC1,3.25%,
Cc1ccc(NS(=O)(=O)c2cn(C)c(C)n2)c(Br)c1,inactive: -10.9%,
O=C(CSc1nc2c([nH]c3ccccc32)c(=O)n1-c1cccc(Cl)c1)N1CCOCC1,inactive: -50.3%,
Cc1oc2ccc(O)c(CN3CCN(C)CC3)c2c1C(=O)Nc1cccc(C(F)(F)F)c1,-35.1%,
CCCN1CCN(CCCNC(=O)Cn2c(-c3cccs3)cc3ccccc32)CC1,inactive: -13.9%,
COc1ccc(-c2noc(CN3CCN(c4cccc(Cl)c4)CC3)n2)cc1,inactive: -19.7%,
Cc1c(NC(=O)c2cc(-c3ccc(O)cc3)on2)c(=O)n(-c2ccccc2)n1C,-14.2%,
COc1ccc(-c2cc(C(=O)Nc3ccc4c(c3)OCO4)no2)cc1OC,15.9%,
COc1ccc(N2CCN(C(=O)CCc3c(C)nc4cc(-c5ccc(Cl)cc5)nn4c3C)CC2)cc1,inactive: -78.1%,
O=C(NCc1ccccc1Cl)c1cnc2sc(N3CCCCC3)nn2c1=O,-5.32%,
Cc1nc2scc(C)n2c(=O)c1S(=O)(=O)Nc1ccc(N2CCOCC2)cc1,-21.6%,
COc1ccc(C(CC(=O)NCc2ccccc2)N2Cc3ccccc3C2=O)cc1 (stereo not drawn),-4.99%,
CCc1ccccc1NC(=O)c1cnc2sc(N3CCOCC3)nn2c1=O,-4.41%,

Compound,"activity change, positive = activation",Potency
CCOc1ccccc1CNC(=O)c1cnc2sc(N3CCC(C)CC3)nn2c1=O,2.83%,
Cn1cnc2c(F)c(Nc3ccc(Br)cc3Cl)c(C(=O)NOCCO)cc21,inactive: -3.64%,
COc1cc(-c2nnc(SCC(=O)NCc3ccccc3Cl)o2)cc(OC)c1OC,-4.23%,
COc1ccc(CNc2ncnc3onc(C)c23)cc1,inactive: -38.8%,
COc1ccc2c(C)c(CC(=O)NCc3ccc(C)cc3)c(=O)oc2c1OC,6.72%,
CCOC(=O)c1ccc(N2CCN(c3cc(C)ccc3C)CC2)c(NC(=O)Nc2ccccc2)c1,-10.8%,
Clc1ccc(N2CCN(c3ncnc4c3nc3n4CCCC3)CC2)cc1,inactive: -89.9%,
O=C(NCCSCc1cccc(Cl)c1)C1CCN(S(=O)(=O)Cc2ccccc2)CC1,-8.54%,
COc1ccc(C(CC(=O)Nc2cccc(C)c2C)N2Cc3ccccc3C2=O)cc1 (stereo not drawn),-26.7%,
Cc1ccc(-c2nc3ncccc3o2)cc1NC(=O)c1cccc(OCC(C)C)c1,-12.8%,
Cc1ccc(S(=O)(=O)Nc2nc3n(n2)C(c2ccccc2Cl)C=C(c2ccccc2)N3)cc1 (stereo not drawn),inactive: -13.9%,
COc1ccccc1N1CCN(c2nc3ccc(C)cc3n3nnnc23)CC1,5.29%,
O=C(c1ccco1)N1CCN(c2nc3c(Cl)cccc3s2)CC1,inactive: 26.3%,
COc1ccc(Cn2c(SCC(N)=O)nc3c(sc4ccccc43)c2=O)cc1,inactive: 7.82%,
COc1ccc(NC(=O)CC2C(=O)N(c3ccc(C)cc3)C(=O)N2Cc2cccnc2)cc1 (stereo not drawn),0.937%,
CCCCN1C(=O)CN(C2CCCCC2)C(=O)C1c1ccc(OC(C)C)c(OC)c1 (stereo not drawn),-7.92%,
COc1ccccc1Nc1nn2c(=O)c3ccc(C(=O)NCc4ccc(F)cc4)cc3nc2s1,inactive: -52.8%,
COc1ccc(NC(=O)c2c(C)oc3ccc(O)c(CN4CCC(C)CC4)c23)cc1,-22.4%,
Cc1ccc(-c2nnc(Nc3ccc(Cl)c(Cl)c3)c3ccccc23)cc1S(=O)(=O)NCCO,-50.3%,
Cc1ccc(CNC(=O)c2cnn(-c3cccc(C)c3)c2C2CCN(C(=O)OC(C)(C)C)CC2)cc1,inactive: -42.5%,
Cc1ccc(S(=O)(=O)Nc2cc3c(cc2NCc2ccccc2)n(C)c(=O)n3C)cc1,24.3%,
Cc1oc2ccc(O)c(CN3CCCC3)c2c1C(=O)Nc1ccc(C(C)C)cc1,-16.7%,
COc1ccc(-c2nc3cc(NC(=O)c4ccc(C)cc4)ccc3o2)cc1Cl,-36.8%,
